Reference: the supplement of paper PMC4967469
The IC50 comes from the fitted curve, where viability falls to half of the control; where the fit passes the top or lowest dose, that dose stands as a limit. AUC sums up the same curve from the lowest dose to the 256-fold higher top dose; the more sensitive the line, the further below 1. For part of these data: An inferred top dose comes from the curve model; the source does not state it. For part of these data: Drugs with an entry number were screened twice under separate entries, and the two screens often disagree.

Legend:
Assay in all cases: Viability of human cancer cell lines after 72 h of drug (GDSC screen)
PHA-793887 = compound: CC(C)CC(=O)Nc1n[nH]c2c1CN(C(=O)C1CCN(C)CC1)C2(C)C [PHA-793887]; settings: top dose 10.24 µM
Experimental: (§1)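 Human cancer cell lines in 384-well plates, medium with 10% serum, drug for 72 h over a 256-fold dose range (nine 2-fold or five 4-fold steps up to the top dose). Adherent lines were fixed and stained with the nucleic acid dye Syto60, suspension lines read with resazurin; signal relative to control wells, capped at 0 and 100%. One two-parameter sigmoid per drug and line, fitted in a mixed model over all curves with the slope shared within a line.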

TPCA-1 = compound: NC(=O)Nc1sc(-c2ccc(F)cc2)cc1C(N)=O [TPCA-1]; settings: top dose 20 µM
Experimental: as §1

PLX4720 = compound: CCCS(=O)(=O)Nc1ccc(F)c(C(=O)c2c[nH]c3ncc(Cl)cc23)c1F [PLX4720]; settings: top dose 10 µM
Experimental: as §1

AZD-0530 = compound: CN1CCN(CCOc2cc(OC3CCOCC3)c3c(Nc4c(Cl)ccc5c4OCO5)ncnc3c2)CC1 [AZD-0530]; settings: top dose 2 µM
Experimental: as §1

Pyrimethamine = compound: CCc1nc(N)nc(N)c1-c1ccc(Cl)cc1 [Pyrimethamine]; settings: top dose 20 µM; top dose inferred
Experimental: as §1

Y-39983 = compound: C[C@@H](N)c1ccc(C(=O)Nc2ccnc3[nH]ccc23)cc1 [Y-39983]; settings: top dose 20 µM; top dose inferred
Experimental: as §1

Epothilone B = compound: C/C(=C\c1csc(C)n1)[C@@H]1C[C@@H]2O[C@]2(C)CCC[C@H](C)[C@H](O)[C@@H](C)C(=O)C(C)(C)[C@@H](O)CC(=O)O1 [Epothilone B]; settings: top dose 0.032 µM; top dose inferred
Experimental: as §1

[1] = screen: GDSC drug entry 1371, top dose inferred

## IST-MES1 (mesothelioma, adherent)
PHA-793887
  AUC: 0.97
  IC50: > 10.2 µM
TPCA-1
  AUC: 0.764
  IC50: 7.32 µM
PLX4720; [1]
  AUC: 0.986
  IC50: > 10 µM
AZD-0530
  AUC: 0.919
  IC50: > 2 µM
Pyrimethamine
  AUC: 0.978
  IC50: > 20 µM
Y-39983
  AUC: 0.984
  IC50: > 20 µM
Epothilone B
  AUC: 0.852
  IC50: 0.0251 µM

## IST-SL1 (small cell lung carcinoma, semi-adherent)
PHA-793887
  AUC: 0.608
  IC50: 1.28 µM
TPCA-1
  AUC: 0.709
  IC50: 4.95 µM
PLX4720; screen: GDSC drug entry 1036
  AUC: 0.929
  IC50: > 10 µM
PLX4720; [1]
  AUC: 0.983
  IC50: > 10 µM
AZD-0530
  AUC: 0.976
  IC50: > 2 µM
Pyrimethamine
  AUC: 0.824
  IC50: 12.3 µM
Y-39983
  AUC: 0.837
  IC50: 13.9 µM
Epothilone B
  AUC: 0.7
  IC50: 0.00745 µM

## JAR (urogenital system, adherent)
PHA-793887
  AUC: 0.559
  IC50: 0.926 µM
TPCA-1
  AUC: 0.902
  IC50: > 20 µM
PLX4720; screen: GDSC drug entry 1036
  AUC: 0.985
  IC50: > 10 µM
PLX4720; [1]
  AUC: 0.98
  IC50: > 10 µM
AZD-0530
  AUC: 0.968
  IC50: > 2 µM
Pyrimethamine
  AUC: 0.881
  IC50: > 20 µM
Y-39983
  AUC: 0.978
  IC50: > 20 µM
Epothilone B
  AUC: 0.925
  IC50: > 0.032 µM

## JJN-3 (haematopoietic neoplasm, suspension)
PHA-793887
  AUC: 0.513
  IC50: 0.688 µM
TPCA-1
  AUC: 0.76
  IC50: 5.9 µM
PLX4720; screen: GDSC drug entry 1036
  AUC: 0.993
  IC50: > 10 µM
PLX4720; [1]
  AUC: 0.986
  IC50: > 10 µM
AZD-0530
  AUC: 0.993
  IC50: > 2 µM
Pyrimethamine
  AUC: 0.985
  IC50: > 20 µM
Y-39983
  AUC: 0.965
  IC50: > 20 µM
Epothilone B
  AUC: 0.64
  IC50: 0.0045 µM

## JURL-MK1 (chronic myeloid leukaemia, suspension)
PHA-793887
  AUC: 0.793
  IC50: 4.66 µM
TPCA-1
  AUC: 0.514
  IC50: 1.36 µM
PLX4720; screen: GDSC drug entry 1036
  AUC: 0.964
  IC50: > 10 µM
PLX4720; [1]
  AUC: 0.945
  IC50: > 10 µM
AZD-0530
  AUC: 0.916
  IC50: > 2 µM
Pyrimethamine
  AUC: 0.739
  IC50: 5.99 µM
Y-39983
  AUC: 0.928
  IC50: > 20 µM
Epothilone B
  AUC: 0.728
  IC50: 0.00889 µM

## JVM-3 (lymphoid neoplasm, suspension)
PHA-793887
  AUC: 0.819
  IC50: 5.96 µM
TPCA-1
  AUC: 0.783
  IC50: 8.59 µM
PLX4720; screen: GDSC drug entry 1036
  AUC: 0.821
  IC50: 5.91 µM
PLX4720; [1]
  AUC: 0.87
AZD-0530
  AUC: 0.987
  IC50: > 2 µM
Pyrimethamine
  AUC: 0.979
  IC50: > 20 µM
Y-39983
  AUC: 0.929
  IC50: > 20 µM
Epothilone B
  AUC: 0.987
  IC50: > 0.032 µM

## JiyoyeP-2003 (Burkitt lymphoma, suspension)
PHA-793887
  AUC: 0.754
  IC50: 3.08 µM
TPCA-1
  AUC: 0.691
  IC50: 3.97 µM
PLX4720; screen: GDSC drug entry 1036
  AUC: 0.958
  IC50: > 10 µM
PLX4720; [1]
  AUC: 0.982
  IC50: > 10 µM
AZD-0530
  AUC: 0.983
  IC50: > 2 µM
Pyrimethamine
  AUC: 0.836
  IC50: 11.1 µM
Y-39983
  AUC: 0.886
  IC50: 17.5 µM
Epothilone B
  AUC: 0.741
  IC50: 0.00879 µM

## K5 (thyroid, adherent)
PHA-793887
  AUC: 0.985
  IC50: > 10.2 µM
TPCA-1
  AUC: 0.938
  IC50: > 20 µM
PLX4720; screen: GDSC drug entry 1036
  AUC: 0.57
  IC50: 0.963 µM
PLX4720; [1]
  AUC: 0.675
  IC50: 1.88 µM
AZD-0530
  AUC: 0.967
  IC50: > 2 µM
Pyrimethamine
  AUC: 0.962
  IC50: > 20 µM
Y-39983
  AUC: 0.957
  IC50: > 20 µM
Epothilone B
  AUC: 0.637
  IC50: 0.00469 µM

## KALS-1 (glioma, adherent)
PHA-793887
  AUC: 0.817
  IC50: 8.7 µM
TPCA-1
  AUC: 0.908
  IC50: > 20 µM
PLX4720; [1]
  AUC: 0.973
  IC50: > 10 µM
AZD-0530
  AUC: 0.797
  IC50: 1.37 µM
Pyrimethamine
  AUC: 0.743
  IC50: 8.2 µM
Y-39983
  AUC: 0.905
  IC50: > 20 µM
Epothilone B
  AUC: 0.571
  IC50: 0.00336 µM

## KARPAS-299 (anaplastic large cell lymphoma, suspension)
PHA-793887
  AUC: 0.376
  IC50: 0.31 µM
TPCA-1
  AUC: 0.762
  IC50: 6.04 µM
PLX4720; screen: GDSC drug entry 1036
  AUC: 0.931
  IC50: > 10 µM
PLX4720; [1]
  AUC: 0.969
  IC50: > 10 µM
AZD-0530
  AUC: 0.992
  IC50: > 2 µM
Pyrimethamine
  AUC: 0.949
  IC50: > 20 µM
Y-39983
  AUC: 0.89
  IC50: 16.3 µM
Epothilone B
  AUC: 0.943
  IC50: > 0.032 µM

## KARPAS-422 (B-cell lymphoma, suspension)
PHA-793887
  AUC: 0.499
  IC50: 0.635 µM
TPCA-1
  AUC: 0.86
  IC50: 16.3 µM
PLX4720; screen: GDSC drug entry 1036
  AUC: 0.966
  IC50: > 10 µM
PLX4720; [1]
  AUC: 0.983
  IC50: > 10 µM
AZD-0530
  AUC: 0.983
  IC50: > 2 µM
Pyrimethamine
  AUC: 0.879
  IC50: > 20 µM
Y-39983
  AUC: 0.938
  IC50: > 20 µM
Epothilone B
  AUC: 0.772
  IC50: 0.0122 µM

## KCL-22 (chronic myeloid leukaemia, suspension)
PHA-793887
  AUC: 0.34
  IC50: 0.25 µM
TPCA-1
  AUC: 0.806
  IC50: 8.27 µM
PLX4720; screen: GDSC drug entry 1036
  AUC: 0.991
  IC50: > 10 µM
PLX4720; [1]
  AUC: 0.972
  IC50: > 10 µM
AZD-0530
  AUC: 0.729
  IC50: 0.492 µM
Pyrimethamine
  AUC: 0.836
  IC50: 10.3 µM
Y-39983
  AUC: 0.908
  IC50: 19.8 µM
Epothilone B
  AUC: 0.465
  IC50: 0.00163 µM

## KE-37 (lymphoblastic leukaemia, suspension)
PHA-793887
  AUC: 0.448
  IC50: 0.479 µM
TPCA-1
  AUC: 0.442
  IC50: 0.901 µM
PLX4720; screen: GDSC drug entry 1036
  AUC: 0.858
  IC50: 5.31 µM
PLX4720; [1]
  AUC: 0.987
  IC50: > 10 µM
AZD-0530
  AUC: 0.994
  IC50: > 2 µM
Pyrimethamine
  AUC: 0.858
  IC50: 10.6 µM
Y-39983
  AUC: 0.86
  IC50: 10.8 µM
Epothilone B
  AUC: 0.5
  IC50: 0.002 µM

## KELLY (neuroblastoma, adherent)
PHA-793887
  AUC: 0.961
  IC50: > 10.2 µM
TPCA-1
  AUC: 0.653
  IC50: 3.18 µM
PLX4720; screen: GDSC drug entry 1036
  AUC: 0.987
  IC50: > 10 µM
PLX4720; [1]
  AUC: 0.988
  IC50: > 10 µM
AZD-0530
  AUC: 0.952
  IC50: > 2 µM
Pyrimethamine
  AUC: 0.906
  IC50: > 20 µM
Y-39983
  AUC: 0.805
  IC50: 9.01 µM
Epothilone B
  AUC: 0.651
  IC50: 0.00502 µM

## KG-1 (acute myeloid leukaemia, suspension)
PHA-793887
  AUC: 0.903
  IC50: > 10.2 µM
TPCA-1
  AUC: 0.401
  IC50: 0.691 µM
PLX4720; screen: GDSC drug entry 1036
  AUC: 0.978
  IC50: > 10 µM
PLX4720; [1]
  AUC: 0.931
  IC50: > 10 µM
AZD-0530
  AUC: 0.99
  IC50: > 2 µM
Pyrimethamine
  AUC: 0.986
  IC50: > 20 µM
Y-39983
  AUC: 0.89
  IC50: 18.7 µM
Epothilone B
  AUC: 0.672
  IC50: 0.0057 µM

## KGN (ovary, adherent)
PHA-793887
  AUC: 0.905
  IC50: > 10.2 µM
TPCA-1
  AUC: 0.713
  IC50: 5.77 µM
PLX4720; screen: GDSC drug entry 1036
  AUC: 0.923
  IC50: > 10 µM
PLX4720; [1]
  AUC: 0.929
  IC50: > 10 µM
AZD-0530
  AUC: 0.77
  IC50: 0.923 µM
Pyrimethamine
  AUC: 0.896
  IC50: > 20 µM
Y-39983
  AUC: 0.917
  IC50: > 20 µM
Epothilone B
  AUC: 0.311
  IC50: 0.000521 µM

## KINGS-1 (glioma, adherent)
PHA-793887
  AUC: 0.927
  IC50: > 10.2 µM
TPCA-1
  AUC: 0.9
  IC50: > 20 µM
PLX4720; screen: GDSC drug entry 1036
  AUC: 0.979
  IC50: > 10 µM
PLX4720; [1]
  AUC: 0.966
  IC50: > 10 µM
AZD-0530
  AUC: 0.864
  IC50: > 2 µM
Pyrimethamine
  AUC: 0.915
  IC50: > 20 µM
Y-39983
  AUC: 0.951
  IC50: > 20 µM
Epothilone B
  AUC: 0.837
  IC50: > 0.032 µM
